# Measured values from PubChem BioAssay AID485294 (National Center for Advancing Translational Sciences (NCATS), 2010).
# Screen size: about 370,000 compounds; about 150 (0.041%) were called active. This list was built around the results that the source calls inconclusive (neither active nor inactive); the mix of calls is not that of the screen. The call rests on the fitted dose curve; in most records, active means well fitted inhibition curve with a large enough effect; inconclusive means small, poorly fitted or top-dose-only effect; inactive means flat fitted curve, though single readings scatter. Potencies of inconclusive entries are left out as doubtful fits.
# Target: Beta-lactamase (Escherichia coli (strain K12)) (UniProt P00811)
# Assay: qHTS Inhibitors of AmpC Beta-Lactamase (assay with detergent); further: nearly all actives have a fitted effect of over 25% in size
# Details: AmpC hydrolysis of nitrocefin, absorbance 480 nm, 0.01% Triton; series mostly up to 114 µM
# Method in brief: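 AmpC (5.3 nM in the dispensed reagent) in 20 mM phosphate pH 7.0 with 0.01% (detergent screen) or 0.0001% Triton X-100 was preincubated with compounds for 15 min at room temperature. Nitrocefin was then added from an 800 uM solution, and hydrolysis was followed at 480 nm.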
# Potency means the concentration at half of the fitted maximal effect; tags describe the fitted curve by direction and shape.
# Sequence of UniProt P00811 (P00811 whole entry, looked up): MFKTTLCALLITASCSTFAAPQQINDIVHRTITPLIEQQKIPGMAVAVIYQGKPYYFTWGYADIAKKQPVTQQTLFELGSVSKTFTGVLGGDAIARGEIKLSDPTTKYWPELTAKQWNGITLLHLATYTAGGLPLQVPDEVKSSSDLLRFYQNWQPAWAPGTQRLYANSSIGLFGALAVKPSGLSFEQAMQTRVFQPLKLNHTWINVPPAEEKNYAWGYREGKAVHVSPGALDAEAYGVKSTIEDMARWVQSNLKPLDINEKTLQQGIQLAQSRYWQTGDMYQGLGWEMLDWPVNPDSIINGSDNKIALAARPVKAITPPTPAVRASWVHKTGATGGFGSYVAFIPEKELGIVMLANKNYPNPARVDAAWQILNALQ
row,SMILES,Potency
1,CC(=O)c1cc(-c2ccccc2)n(CCC(=O)NCc2cccs2)c1C,"inconclusive [inhibitor, partial curve]"
2,COc1ccc(-c2nnc3ccc(SCC(=O)N4CCCCCC4)nn23)cc1OC,"inconclusive [inhibitor, partial curve]"
3,Cn1c2ccccc2c2c(C(=O)N3CCN(c4ccc(F)cc4)CC3)cn(C3CCCC3)c(=O)c21,"inconclusive [inhibitor, partial curve, poor fit]"
4,Cc1cc(C)n(CC(=O)N2c3ccccc3Sc3ccccc32)n1,"inconclusive [inhibitor, full curve]"
5,COc1cccc(N2CC(NS(=O)(=O)c3ccc(Cl)cc3)CC2=O)c1 (stereo unspecified),"inconclusive [inhibitor, full curve, poor fit]"
6,NS(=O)(=O)c1ccc(-c2ccc(C=NC3CCS(=O)(=O)C3)o2)cc1 (stereo unspecified),"inconclusive [inhibitor, partial curve, poor fit]"
7,CC(=O)N1N=C(c2ccccc2)CC1c1ccccc1[N+](=O)[O-] (stereo unspecified),"inconclusive [inhibitor, full curve, poor fit]"
8,CCOc1ccc(CNC(=O)C2CCN(C3=NS(=O)(=O)C(c4ccc(C)cc4)=C3CC)CC2)cc1,inactive
9,Cc1ccc(N(C(=O)c2snc(C(N)=O)c2N)C(C(=O)NCC2CCCO2)c2ccc3ncccc3c2)cc1 (stereo unspecified),"inconclusive [inhibitor, partial curve]"
10,O=C1Nc2ccc(S(=O)(=O)NCCC3=CCCCC3)c3cccc1c23,"inconclusive [inhibitor, partial curve, poor fit]"
11,COc1ccc(/C=C2\SC(=S)N(CCC(=O)Nc3ccccc3C(=O)O)C2=O)cc1,"inconclusive [inhibitor, partial curve, poor fit]"
12,COc1cc2c(cc1OC)CN(C(=O)C1CCCN1S(=O)(=O)c1ccc(C)cc1)CC2 (stereo unspecified),"inconclusive [inhibitor, partial curve]"
13,CC(O)c1nc2ccccc2n1CC(=O)N1CCN(c2ccccc2)CC1 (stereo unspecified),"inconclusive [inhibitor, full curve, poor fit]"
14,O=C1N(Cc2cccnc2)C[C@@H]2C[C@@H](c3ccc4nonc4c3)N3CCC[C@@]123,inactive
15,O=C(CCc1nc2ccccc2c(=O)[nH]1)N1CCN(S(=O)(=O)c2cccc([N+](=O)[O-])c2)CC1,"inconclusive [inhibitor, partial curve, poor fit]"
16,O=C(/C=C/c1ccco1)Nc1ccc(CN2CCOCC2)cc1,inactive
17,COc1ccc2nc(C)cc(NCc3ccc(F)cc3)c2c1,"inconclusive [inhibitor, full curve, poor fit]"
18,O=C(Nc1ncc(Cc2cccc(Cl)c2)s1)C1=NCCN1,inactive
19,COc1ccc(/C=C/C(=O)NC(=S)Nc2cc3oc4ccccc4c3cc2OC)cc1,"inconclusive [inhibitor, full curve, poor fit]"
20,CC(C)NC(=O)Cn1ncn2c(cc3cc(F)ccc32)c1=O,inactive
21,O=C(NCC12CC3CC(CC(C3)C1)C2)c1cc2nc(-c3ccc(Cl)cc3)cc(C(F)(F)F)n2n1,inactive

row,SMILES,Potency
1,CCOC(=O)c1[nH]c(C)c(C(=O)NC(C)(C)C)c1C,"inconclusive [inhibitor, single point]"
2,CC1=C(C(=O)OC2CCCCCCC2)C(c2ccc(O)cc2)NC(=O)N1 (stereo unspecified),"inconclusive [inhibitor, full curve, poor fit]"
3,O=C(NNC(=O)C1CCN(c2ncccn2)CC1)c1ccc(F)cc1,"inconclusive [inhibitor, full curve, poor fit]"
4,O=C(Cc1c(F)cccc1Cl)Nc1ccccc1C(=O)N1CCCCC1,"inconclusive [inhibitor, full curve, poor fit]"
5,Cc1nc(NC(=O)C23CC4CC(CC(C4)C2)C3)sc1Cc1ccc2c(c1)OCO2,inactive
6,COc1cc2[nH]c(=O)n(-c3ccccc3)c(=O)c2cc1OC,"inconclusive [inhibitor, full curve, poor fit]"
7,COc1cccc(N2C(=O)CC(N3CCN(c4ccc([N+](=O)[O-])cc4)CC3)C2=O)c1 (stereo unspecified),"inconclusive [inhibitor, partial curve, poor fit]"
8,CN(C)S(=O)(=O)c1cccc(NC(=S)NC23CC4CC(CC(C4)C2)C3)c1,inactive
9,COc1ccccc1N1CSC2=C(C#N)C(c3ccc(SC)cc3)CC(=O)N2C1 (stereo unspecified),"inconclusive [inhibitor, full curve, poor fit]"
10,CCCCn1c(=S)[nH]c2cc(S(=O)(=O)N3CCCCC3)ccc21,"inconclusive [inhibitor, single point]"
11,CCCc1cc(NC(=O)CCl)n(-c2ccccc2)n1,inactive
12,CCN(CC)CC(=O)c1c[nH]c2ccccc12,inactive
13,COc1ccc(NS(=O)(=O)CC23CCC(CC2=O)C3(C)C)cc1 (stereo unspecified),"inconclusive [inhibitor, full curve, poor fit]"
14,CCOC(=O)[C@@H]1[C@H]2COc3ccccc3[C@@H]2N2C(=O)N(c3cccc(C)c3)C(=O)[C@]12C,"inconclusive [inhibitor, partial curve, poor fit]"
15,O=C(CCN1C(=O)c2ccccc2C1=O)Nn1cnnc1,inactive
16,Cc1ccc(-c2cc(C(F)(F)F)n3ncc(C(=O)N4CCCc5ccccc54)c3n2)cc1,"inconclusive [inhibitor, partial curve, poor fit]"
17,Oc1ccc(Br)cc1Cn1nnc2ccccc21,"inconclusive [inhibitor, full curve, poor fit]"
18,C/C(=N/NC(=O)c1ccc2nc[nH]c2c1)c1cccs1,inactive
19,COc1ccc(C(=O)NC2=C(C#N)CCC2)cc1OC,"inconclusive [inhibitor, full curve, poor fit]"
20,C[C@]1(C(=O)NCCc2c[nH]c3ccccc23)C=C[C@@H](Cc2ccccc2)N1C(=O)c1ccccc1,"inconclusive [inhibitor, full curve, poor fit]"
